Laboratory results: PubChem BioAssay AID686978 (National Center for Advancing Translational Sciences (NCATS), 2013)
The whole screen tested about 420,000 compounds, of which about 64,000 (15%) were called active. Inconclusive results, whose numbers are uncertain, are shown with a selection of clear calls. The call rests on the fitted dose curve; in most records, active means well fitted inhibition curve with a large enough effect; inconclusive means small, poorly fitted or top-dose-only effect; inactive means flat fitted curve, though single readings scatter. No potency is given beside an inconclusive call; the fits are too rough.

Assay: qHTS for Inhibitors of human tyrosyl-DNA phosphodiesterase 1 (TDP1): qHTS in cells in absence of CPT; further: nearly all actives have a fitted effect of over 55% in size
Details: DT40 Tdp1-/- hTDP1 cells, no CPT, ATP luminescence, 48 h; activity change, negative = growth inhibition: at 46.2 µM (top of the series)
Method in brief: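 Chicken DT40 Tdp1-/- cells stably complemented with human TDP1 were seeded at 400 cells/well with DMSO in place of 20 nM camptothecin. After compound pinning, cells grew at least 48 hr at 37 °C; viability read by CellTiter-Glo luminescence.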
On the % scale 0 is the no-effect control and ±100 the full control effect; potency means the concentration at half of the fitted maximal effect; tags describe the fitted curve by direction and shape.

Structure (SMILES)	Potency	activity change, negative = growth inhibition
CC1=C(c2ccc(C)c(C)c2)S(=O)(=O)N=C1N1CCC(C(=O)NCc2ccc(N(C)C)cc2)CC1	inconclusive [inhibitor, single point]	–
COc1cc(O)c(C(CC(=O)N2CCCC(C)C2)c2ccc3c(c2)OCO3)c(OC)c1 (stereo not drawn)	inconclusive [inhibitor, single point]	–
CN(Cc1ccc(Cl)cc1Cl)C(=O)c1cccc(S(=O)(=O)NCc2ccccc2)c1	inconclusive [inhibitor, single point]	–
Cc1cc(C)nc(SCc2nnc(SCC(=O)N3CCCc4ccccc43)n2C)n1	inactive	–
Cc1ccccc1NCC(=O)N/N=C/c1ccc([N+](=O)[O-])cc1	–	inconclusive: -33.8% [inhibitor]
CCOc1ccc(C(=O)N[C@H](C(=O)N2CCN(c3ncccn3)CC2)C(C)C)cc1	inconclusive [inhibitor, partial curve]	–
O=C(Oc1cc(Cl)cc(Cl)c1)c1cnc2n(c1=O)CCS2	inactive	–
O=C(NCc1ccc(F)cc1)C(c1ccccc1)N(C(=O)c1csnn1)c1ccccc1 (stereo not drawn)	inconclusive [inhibitor, single point]	–
O=C1N(Cc2cccnc2)C[C@@H]2C[C@@H](c3ccc(C(F)(F)F)cc3)N3CCC[C@@]123	inconclusive [inhibitor, single point]	–
O=C(CNC(=O)Cc1ccccc1)NCC(=O)OCC(=O)c1cccc2ccccc12	active: 17.8 µM	–
O=C1c2cccc3cccc(c23)C(=O)N1c1cccc(O)c1	inactive	–
Cc1ccc(C)c(NS(=O)(=O)c2cc(C(=O)N3CCCC3)ccc2Cl)c1	inactive	–
O=c1c2oc3ccccc3c2n(Cc2ccccc2F)c(=O)n1Cc1ccc2c(c1)OCO2	inconclusive [inhibitor, partial curve, poor fit]	–
Cc1ccc(NC(=O)CCN2CCC(C(N)=O)CC2)cc1	inactive	–
O=C(Nc1ccc(C(=O)Nc2ccccc2Cl)cc1)c1cccnc1	inactive	–
C/C(=C\C(=O)c1ccc(Br)cc1)NNC(=O)c1ccc(O)cc1	inconclusive [inhibitor, single point]	–
CCOc1ccc(-c2cc(C(=O)O)c3ccccc3n2)cc1	inconclusive [inhibitor, partial curve]	–
Cc1c(C)c(C)c2[nH]c(=S)[nH]c2c1C	inconclusive [inhibitor, partial curve]	–
COc1ccc(/C=C(\NC(=O)c2ccc(OC)c(OC)c2)C(=O)NCCc2c[nH]c3ccccc23)cc1	inconclusive [inhibitor, partial curve]	–
CCc1ccccc1NC(=O)CN1CCN(C(=O)CNC(=O)c2ccc(N3CCCC3=O)cc2)CC1	inactive	–
O=c1c2c(ncn2C2CCCC2)n(Cc2ccccc2)c(=O)n1CCOc1ccccc1	inactive	–
Cc1ccc(-c2nnc(SCC(=O)NCc3ccccc3)o2)cc1	inconclusive [inhibitor, single point]	–
C=C1SC(=Nc2c(C)cc(C)cc2C)N(C(=O)c2sc3ccccc3c2Cl)C12CCCCC2	active: 20.6 µM	–
CCOc1cc2nc(-c3ccc(OC)c(OC)c3)nc(NCCCN3CCOCC3)c2cc1OC	active: 20.6 µM	–
CCOC(=O)C1C2C=CC3(CN(Cc4cccs4)C(=O)C13)O2 (stereo not drawn)	active: 20.6 µM	–

Structure (SMILES)	Potency	activity change, negative = growth inhibition
CCCCNC(=O)C1(C)CCN1C(=O)c1cc(C)n(C(C)(C)C)n1 (stereo not drawn)	inconclusive [inhibitor, single point]	–
S=C(NCCc1ccccn1)Nc1cccc(Cl)c1	inconclusive [inhibitor, single point]	–
COc1ccc(C(=O)OC2C(OC)OCC(O)C2O)cc1 (stereo not drawn)	inconclusive [inhibitor, single point]	–
CCCn1nnnc1COc1ccc(C(N)=O)cc1	inactive	–
COCCNS(=O)(=O)c1ccc(SC)cc1	inactive	–
O=C(COc1ccccc1)c1cn(CC(=O)N2CCOCC2)c2ccccc12	inconclusive [inhibitor, full curve, poor fit]	–
COc1cc2c(NC3CCN(C(C)C)CC3)nc(N3CCCN(C)CC3)nc2cc1OCCOCCN(C)C	active: 14.1 µM	–
N#C/C(=C/c1ccc(-c2ccc([N+](=O)[O-])cc2)o1)c1nnc(N2CCOCC2)n1-c1ccccc1	inconclusive [inhibitor, full curve, poor fit]	–
Oc1cncc(Cc2ccccc2)c1	–	inconclusive: -14.8% [inhibitor]
NC(=O)CN1C(=O)C(O)(CC(=O)/C=C\C=C\c2ccccc2)c2ccccc21 (stereo not drawn)	inconclusive [inhibitor, single point]	–
CCOc1ccc(CNS(=O)(=O)c2ccc3c(c2)CC(C)N3C(C)=O)cc1OC (stereo not drawn)	active: 11.6 µM	–
COc1ccc(OC)c(CCNC(=O)CCCn2c(=O)c3cccn3c3cccnc32)c1	active: 20.6 µM	–
Cc1cc(C)c2cc(C#N)c(NCCCNC(=O)c3cccnc3)nc2c1	inconclusive [inhibitor, partial curve, poor fit]	–
O=C(Nc1ccc(-c2csc(-c3ccccc3)n2)cc1)c1ccccc1Cl	inconclusive [inhibitor, partial curve]	–
Cn1c(SCC(=O)c2ccc(O)c(O)c2)nnc1-c1cccs1	inconclusive [inhibitor, single point]	–
COc1ccc(CNC(=O)c2cnn(-c3ccccc3)c2-n2cccc2)cc1OC	active: 18.4 µM	–
COc1ccc(C(=O)CCC(=O)N2CCN(c3ccc(N4CCOCC4)nn3)CC2)cc1	inactive	–
COc1ccc(S(=O)(=O)N2CCOCC2)cc1NC(=O)CCNC(=O)c1ccc([N+](=O)[O-])cc1	active: 7.31 µM	–
CC(=O)c1cccc(N=Nc2c(-c3ccccc3)[nH]n(-c3ccccc3)c2=O)c1	inconclusive [inhibitor, single point]	–
COc1cccc(Nc2nc(C(N)C(C)C)cs2)n1 (stereo not drawn)	active: 23.1 µM	–
O=C(O)c1ccc(-c2nc3ccccc3s2)o1	inactive	–
Cc1cccc(C)c1NC(=O)C(CCc1ccccc1)n1c(=O)c(-c2ccccc2)nc2ccccc21 (stereo not drawn)	active: 4.11 µM	–
CCCCC(=O)N(C)c1c(C)nc2ccc(C(=O)N(C)Cc3ccco3)cn12	inactive	–
CCN(CC)c1ccc(N=Nc2nn(C)c(C)c2[N+](=O)[O-])cc1	–	inconclusive: -31.9% [inhibitor]
CCCS(=O)(=O)NC(=O)C1(C)CCN(C(=O)Cc2ccc(F)cc2)C1 (stereo not drawn)	inactive	–

Structure (SMILES)	Potency	activity change, negative = growth inhibition
NC(=O)c1ccc[n+](CC(=O)c2ccc(NC(=O)c3ccccc3)cc2)c1	inactive	–
CCCCC(=O)NC(=S)Nc1nnn(CCC)n1	active: 5.8 µM	–
O=C1/C(=C\c2ccc([N+](=O)[O-])cc2)CCc2ccccc21	–	inconclusive: -31.1% [inhibitor]
CC(NC(=O)CN(C)Cc1cccc(Cl)c1)c1ccccc1 (stereo not drawn)	inconclusive [inhibitor, single point]	–
CCCOc1ccc(Oc2ccc(S(=O)(=O)N3CCN(C)CC3)cn2)cc1	inconclusive [inhibitor, single point]	–
COc1ccccc1CNC(=O)COC(=O)c1cnc(C)cn1	inactive	–
OC(c1cc(-c2ccc(Cl)cc2)nc2ccccc12)C1CCCCN1 (stereo not drawn)	active: 25.9 µM	–
O=C1C=C(c2cccs2)C[C@H](c2ccccc2)[C@H]1n1nnc([N+](=O)[O-])n1	active: 2.91 µM	–
COc1cc(Nc2ccc(C(=O)O)cc2[N+](=O)[O-])cc(OC)c1	inconclusive [inhibitor, single point]	–
NC(=O)c1ccccc1NC(=O)CCCc1ccccc1	inconclusive [inhibitor, single point]	–
Cc1cc2c(cc(C(=O)NCCCN3CCOCC3)n2Cc2ccc(Cl)cc2)o1	inconclusive [inhibitor, single point]	–
Clc1cccc(Cl)c1CSc1nnc(CN2CCOCC2)n1-c1ccccc1	inconclusive [inhibitor, single point]	–
COc1ccc(-c2nnn(CC(=O)N3CCN(c4ccccc4OC)CC3)n2)cc1	inconclusive [inhibitor, partial curve, poor fit]	–
Cc1cc(C)n(-c2ccc(C(=O)NCc3cccs3)cc2)n1	inconclusive [inhibitor, single point]	–
CCCn1cnc2cc(NCc3ccc(Br)cc3)ccc21	inconclusive [inhibitor, single point]	–
CN(C(=O)c1ccc(OC2CCN(C(=O)c3cccnc3)CC2)cc1)C1CCCCC1	–	inconclusive: -32.2% [inhibitor]
Cc1cccc(C(=O)Nc2ccc3nc(SCC(=O)N4CCCC4)sc3c2)c1	active: 16.4 µM	–
O=C(CSc1nc(=O)[nH]c2c1CCC2)Nc1cc(C(F)(F)F)ccc1Cl	inconclusive [inhibitor, single point]	–
CCOCCOc1nc2c(c(=O)n(C)c(=O)n2C)n1Cc1ccc(C)cc1	active: 8.2 µM	–
Cc1ccc2[nH]c(CSc3ccccc3)cc(=O)c2c1	active: 16.4 µM	–
CCOC(=O)c1cnn(-c2nc(OCC)cc(OCC)n2)c1C	inconclusive [inhibitor, single point]	–
COc1ccc(C(=S)N2CCCC2)cc1	inconclusive [inhibitor, full curve, poor fit]	–
CNc1ncnc2c1ncn2[C@H]1CN(Cc2ccc(OC)cc2)C[C@@H](CO)O1	inconclusive [inhibitor, single point]	–
